Numbering of substitutions follows the chain as printed. Names and notes keep the numbering of the source. ± gives the standard deviation of the averaged measurements. Laboratory Escherichia coli strains with one amino-acid change in an essential protein, pooled on minimal glucose agar with carbenicillin or gentamicin at twice the control MIC (plus kanamycin and chloramphenicol for the plasmids), 48 h. Fold change of barcode share against drug-free plates; higher = less susceptible. Active = above 20 in both replicates (the paper's putatively resistant). '<' = one read or none on drug, '>' = one read or none on a drug-free plate. Shares are relative, so most strains fall below 1 when a few take over. Listed are strains with at least 15 reads on both drug-free plates, and hits; most hits rest on fewer reference reads. Replicate rank correlation about 0.5. Edits are read from barcodes.
B1: mukF V35W (protein)
chain: MSEFSQTVPELVAWARKNDFSISLPVDRLSFLLAWATLNGERLDGEMSEGELVDAFRHVSDAFEQTSETIGVRANNAINDMVRQRLLNRFTSEQAEGNAIYRLTPLGIGITDYYIRQREFSTLRLSMQLSIVAGELKRAADAAEEGGDEFHWHRNVYAPLKYSVAEIFDSIDLTQRLMDEQQQQVKDDIAQLLNKDWRAAISSCELLLSETSGTLRELQDTLEAAGDKLQANLLRIQDATMTHDDLHFVDRLVFDLQSKLDRIISWGQQSIDLWIGYDRHVHKFIRTAIDMDKNRVFAQRLRQSVQTYFDEPWALTYANADRLLDMRDEEMALRDEEVTGELPEDLEYEEFNEIREQLAAIIEEQLAVYKTRQVPLDLGLVVREYLSQYPRARHFDVARIVIDQAVRLGVAQADFTGLPAKWQPINDYGAKVQAHVIDKY
B2: mukF V35Q (protein)
chain: B1 chain with W35Q
B3: mukF V59A (protein)
chain: B1 chain with W35V, V59A
B4: mukF V59Q (protein)
chain: B1 chain with W35V, V59Q
B5: mukF V59P (protein)
chain: B1 chain with W35V, V59P
B6: mukF V132A (protein)
chain: B1 chain with W35V, V132A
B7: mukF V132Q (protein)
chain: B1 chain with W35V, V132Q
B8: mukF V132D (protein)
chain: B1 chain with W35V, V132D
B9: mukF V132P (protein)
chain: B1 chain with W35V, V132P
B10: asd I110Q (protein)
chain: MKNVGFIGWRGMVGSVLMQRMVEERDFDAIRPVFFSTSQLGQAAPSFGGTTGTLQDAFDLEALKALDIIVTCQGGDYTNEIYPKLRESGWQGYWIDAASSLRMKDDAIIQLDPVNQDVITDGLNNGIRTFVGGNCTVSLMLMSLGGLFANDLVDWVSVATYQAASGGGARHMRELLTQMGHLYGHVADELATPSSAILDIERKVTTLTRSGELPVDNFGVPLAGSLIPWIDKQLDNGQSREEWKGQAETNKILNTSSVIPVDGLCVRVGALRCHSQAFTIKLKKDVSIPTVEELLAAHNPWAKVVPNDREITMRELTPAAVTGTLTTPVGRLRKLNMGPEFLSAFTVGDQLLWGAAEPLRRMLRQLA
B11: mukF F31A (protein)
chain: B1 chain with F31A, W35V

biological target: Escherichia coli (laboratory strain); test: barcode share on antibiotic plates over drug-free plates; higher = less susceptible; conditions: antibiotic: carbenicillin; 2× MIC (3.1 µg/mL)
Protocol: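 A pool of E. coli strains, each edited to carry one amino-acid change in an essential protein, was grown for 48 h on minimal glucose agar with or without antibiotic; strain barcodes were sequenced; mean of two replicates.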

Row | Protein | fold change of barcode share
1 | B1 | 0.269 ± 0.13
2 | B2 | 0.277 ± 0.053
3 | B3 | 1.19 ± 0.89
4 | B4 | 0.322 ± 0.12
5 | B5 | 0.918 ± 0.016
6 | B6 | 0.131 ± 0.027
7 | B7 | 0.308 ± 0.081
8 | B8 | 0.166 ± 0.009
9 | B9 | 0.172 ± 0.055
10 | B10 | 0.371 ± 0.067
11 | B11 | 0.289 ± 0.096

same assay, conditions: antibiotic: gentamicin; 2× MIC (MIC 0.45 µg/mL)

Row | Protein | fold change of barcode share
12 | B1 | < 0.00975
13 | B2 | < 0.00314
14 | B3 | < 0.00532
15 | B4 | < 0.00448
16 | B5 | 0.0159 ± 0.0045
17 | B6 | < 0.0142
18 | B7 | < 0.0055
19 | B8 | < 0.0118
20 | B9 | < 0.0104
21 | B10 | 0.00757 ± 0.0052
22 | B11 | 0.0164 ± 0.012
